# Assay results from the supplement of paper PMC12217912.
# The other results are listed elsewhere or left out. The full chains were built here from the parent and the listed change. Values near 0.05 are background.
# B1: TEV protease; numbered along this chain (parent)
# chain: MGESLFKGPRDYNPISSSICHLTNESDGHTTSLYGIGFGPFIITNKHLFRRNNGTLVVQSLHGVFKVKDTTTLQQHLVDGRDMIIIRMPKDFPPFPQKLKFREPQREERICLVTTNFQTKSMSSMVSDTSCTFPSGDGIFWKHWIQTKDGQCGSPLVSTRDGFIVGIHSASNFTNTNNYFTSVPKNFMELLTNQEAQQWVSGWRLNADSVLWGGHKVFMVKPEEPFQPVKEATQL
# Variants of: B1
# Assay: raw area under fraction-flipped curve 0-4 h after induction (AUC4h, not background-subtracted), DNA-recorder readout of cleavage of the substrate (dimensionless); higher = more cleavage of the substrate by the protease variant
# Settings: temperature: 34 °C; time window: 0-4 h after rhamnose induction
# Protocol: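 In vivo DNA recorder in E. coli TOP10(DE3) ΔrhaA at 34 °C. Each TEVp single-site mutant (parent TEVp 0) is paired with a single-site variant of the 7-mer TEVs (canonical ENLYFQ|S). The substrate sits between flexible linkers in a Bxb1-sfGFP-TEVs-SsrA fusion, so cleavage stabilises Bxb1 and speeds flipping of a recombination array, read by NGS. The value is the raw area under the fraction-flipped curve over 0-4 h after rhamnose induction (AUC4h), with ≥20 reads per time point. It is not background-subtracted; inactive controls average about 0.047.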
# 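Further: Bxb1 expression induced with 0.2% (w/v) L-rhamnose at OD600 near 0.5, cultures sampled hourly, flipped fraction per protease–substrate barcode pair counted by paired-end Illumina sequencing.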
Variant,area with substrate ENAYFQS,area with substrate ENCYFQS,area with substrate ENDYFQS,area with substrate ENFYFQS,area with substrate ENGYFQS,area with substrate ENHYFQS,area with substrate ENPYFQS,area with substrate ENRYFQS,area with substrate ENSYFQS,area with substrate ENTYFQS,area with substrate ENYYFQS,area with substrate ENIYFQS,area with substrate ENQYFQS,area with substrate ENWYFQS,area with substrate ENEYFQS,area with substrate ENKYFQS,area with substrate ENMYFQS,area with substrate ENNYFQS,area with substrate ENVYFQS
Q97I,0.0535,0.0685,0.0592,0.0542,0.0729,0.0533,0.069,0.0591,0.0449,0.0667,0.0507,,,,,,,,
M88I,0.0822,0.0619,0.0571,0.0593,0.0767,,,,0.0662,0.0436,0.0583,0.0916,0.0557,0.0471,,,,,
E108V,0.0607,,0.0497,0.0568,0.0572,0.0606,0.0523,0.0581,0.0579,0.0497,0.0457,,0.0507,,0.0578,0.0673,0.0876,0.0543,0.0565
E108S,0.0496,0.0497,,,0.0591,,,0.0495,0.0584,,,,0.0478,0.0591,0.0556,,,0.0624,0.0752
E108I,0.0646,0.047,0.0445,0.039,0.0592,0.062,0.0673,0.0419,0.0463,0.056,,0.0686,0.0564,0.05,0.06,0.0451,,,0.0523
E103W,0.062,0.0447,0.0502,0.054,0.0569,0.0556,0.0543,0.0464,0.0511,0.0589,0.0468,0.0898,0.0663,,0.0558,0.0666,0.0591,0.0633,0.0683
T115W,0.055,0.0696,,0.0747,,0.0624,0.0662,0.0562,0.0595,0.07,,0.102,0.0576,,0.0745,0.0511,,0.0479,
I86E,0.0323,0.0347,0.0399,0.0369,0.0343,,0.0264,,0.0275,,,,0.0376,0.0299,0.0307,,,0.0324,0.033
K90L,0.071,0.0535,0.0538,,0.0604,0.0602,,0.0596,0.0541,0.0671,,0.0979,0.0641,,0.0683,,,,0.0916
F95W,0.0547,0.0628,0.0539,0.0273,0.0495,0.0774,,0.0543,0.066,,0.0569,,0.0542,0.0688,0.0537,,,0.0539,0.0721
R106W,0.0671,0.0614,0.0595,0.0679,0.0665,0.0522,0.0541,0.0583,0.0689,0.0692,0.0624,0.136,0.0584,0.0528,0.0647,0.0565,0.0813,0.0652,0.0701
R106H,0.0534,0.0732,0.0846,0.055,0.0718,0.0521,0.0743,0.0613,0.0625,0.0622,0.0629,0.141,0.0667,0.0556,,0.0603,,0.0611,0.0599
M125K,0.0403,0.0596,0.0553,,0.0664,0.0587,0.0613,0.0527,,0.0345,0.0469,,0.056,,0.0594,0.0726,,,0.0748
K98E,0.0627,,0.0585,0.121,0.0516,,,0.0512,0.0618,0.0284,,,0.0732,0.0582,0.0551,0.0627,,0.0706,0.091
F92A,0.0798,0.0476,0.05,0.0424,0.0684,0.0668,0.0466,,0.0634,0.0592,,,0.0571,,0.0845,0.0582,,0.0489,0.0533
Q105G,0.0678,0.0598,0.0617,,0.0665,0.0586,0.0605,0.0684,0.0548,0.0586,0.0429,,0.0618,,0.0827,,,0.0743,0.073
S130N,0.0462,0.069,0.0534,0.0692,,0.0514,,0.0893,,0.0601,0.0536,,,,0.0524,,,,0.0702
S130Q,0.0689,,,,0.0656,0.0691,0.0619,,,,,,,0.0497,,,,,0.0858
R102W,0.0479,0.0397,0.0569,,0.0608,,0.0412,0.0431,0.0424,,0.0475,,0.0475,0.0524,0.0565,0.0595,0.0286,,0.0505
R102Q,0.0497,0.0708,0.0514,,0.0453,0.0384,0.0486,0.051,0.05,,,,0.0488,,0.0411,0.0512,0.0559,,
S121L,0.0629,0.0659,0.05,0.0575,0.0637,0.0634,0.0665,0.0561,0.0553,,,0.121,0.0605,0.0817,0.0568,0.0622,0.0948,0.0629,0.0806
S121V,0.0709,0.0638,0.0504,0.0585,0.0533,0.0511,0.0589,,0.135,0.0628,,,0.0633,,,0.0619,0.0879,,0.058
S121D,0.0597,0.0654,0.0481,0.0584,,0.0513,0.0666,0.0786,0.067,0.0513,0.0492,0.126,0.0558,0.0045,0.0602,,,0.0558,0.0797
F117G,0.0648,,0.0605,,0.062,0.0616,,,,0.067,0.0826,0.105,0.0357,,0.0597,,,0.077,0.0675
F117K,0.0552,0.0474,,,0.0636,0.0688,0.0653,0.0905,0.0503,0.06,0.0645,0.0727,0.0668,0.0546,0.0703,0.0612,0.066,0.0626,0.0766
